Measurements from PubChem BioAssay (Tox21).
Values joined by “and” are separate entries in the source; they are usually repeats but may differ in a detail not shown here. Identical values can stand only once. The inconclusive results got no clear call from the source; some entries with a clear call stand among them for comparison. For part of these data: Where the call is inconclusive, the potency comes from a doubtful curve fit. Active and inactive are the calls of the source. Unless noted, the call rests on the fitted dose curve; in most records, active means well fitted curve in the direction sought with a large enough effect in the repeat runs; inconclusive means weak or mixed curves; inactive means no such curve, though single readings can be large; an effect the other way counts as inactive or inconclusive.

Assays:
[1] = target: Aryl hydrocarbon receptor (Homo sapiens) (UniProt P35869); assay: qHTS assay to identify small molecule that activate the aryl hydrocarbon receptor (AhR) signaling pathway (AID 743085); further: nearly all actives have a fitted effect of over 15% in size
In short: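 HepG2 cells (HG2L7.5c1) stably carrying a firefly luciferase reporter driven by 20 dioxin responsive elements were exposed to compound for 24 h at 37C after a 5 h settling period; luminescence rise (ONE-Glo) indicated activation.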

[2] = qHTS assay to identify small molecule that activate the aryl hydrocarbon receptor (AhR) signaling pathway - cell viability counter screen (AID 743086); further: nearly all actives have a fitted effect of over 45% in size
In short: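 HepG2-AhR-luc (HG2L7.5c1) cells, 4000/well, treated 24 h at 37 C with compound; viability measured as CellTiter-Fluor fluorescence after 30 min in the same wells as the luciferase read.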

[3] = target: Peroxisome proliferator-activated receptor gamma (Homo sapiens) (UniProt P37231); assay: qHTS assay to identify small molecule agonists of the peroxisome proliferator-activated receptor gamma (PPARg) signaling pathway (AID 743094; active means well fitted activation curve with a large enough effect in the signal ratio in the repeat runs, not every such curve was filed as active; inconclusive means weak or mixed curves, or effect the other way; inactive means no such curve, though single readings can be large or run the other way; the % refers to the signal ratio; on activation: on the % scale 0 is the no-effect control and ±100 the full control effect); conditions: HEK293H PPARg-UAS-bla, beta-lactamase FRET ratio, 17 h; activation: at 57 µM (top of the series) unless noted
In short: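 Stably transfected HEK293H cells (GeneBLAzer PPARg UAS-bla) were incubated with test substances for 17 h at 37C after a 5 h pre-incubation; beta-lactamase activity was then detected by FRET substrate fluorescence.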

[4] = target: Peroxisome proliferator-activated receptor gamma (Homo sapiens) (UniProt P37231); assay: qHTS assay to identify small molecule antagonists of the peroxisome proliferator-activated receptor gamma (PPARg) signaling pathway (AID 743191; calls by dose curve; further: nearly all actives have a fitted effect of over 30% in size); conditions: HEK293H PPARg-UAS-bla, beta-lactamase ratio, antagonist, 17 h; ratio activity, negative = inhibition: at 62.6 µM (top of the series) unless noted
In short: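 GeneBLAzer PPARg UAS-bla HEK293H cells, 5 h post-plating, exposed to compounds 17 h at 37C. LiveBLAzer B/G FRET substrate added for 1 h at room temperature; beta-lactamase reporter read by fluorescence intensity.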

[5] = qHTS assay to identify small molecule antagonists of the peroxisome proliferator-activated receptor gamma (PPARg) signaling pathway - cell viability counter screen (AID 743194); conditions: PPARg-bla HEK293H viability, CellTiter-Glo luminescence, 17 h, co-treated with 50 nM rosiglitazone; activity change, negative = cytotoxicity: at 62.6 µM (top of the series) unless noted; further: nearly all actives have a fitted effect of over 55% in size; on activity change, negative = cytotoxicity: on the % scale 0 is the no-effect control and ±100 the full control effect
In short: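 Cytotoxicity counter screen in PPARg-bla HEK293H cells, same wells as reporter assay. Compounds plus 50 nM rosiglitazone (final) for 17 h at 37 C, then viability read by CellTiter-Glo luminescence.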

[6] = qHTS assay for small molecule agonists of the antioxidant response element (ARE) signaling pathway (AID 743202; active means well fitted activation curve with a large enough effect in the signal ratio in the repeat runs, not every such curve was filed as active; inconclusive means weak or mixed curves, or effect the other way; inactive means no such curve, though single readings can be large or run the other way; the % refers to the signal ratio); conditions: HepG2 ARE-bla reporter, beta-lactamase FRET, 16 h; activation: at 73.3 µM (top of the series) unless noted
In short: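 ARE-bla HepG2 cells (beta-lactamase reporter under the antioxidant response element), plated 5 hours, then exposed to compounds 16 hours at 37 C. LiveBLAzer B/G FRET substrate added for 2 hours at room temperature; fluorescence intensity read.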

[7] = qHTS assay for small molecule activators of the heat shock response signaling pathway (AID 743210; active means well fitted activation curve with a large enough effect in the signal ratio in the repeat runs, with a control signal flat, not every such curve was filed as active; inconclusive means weak or mixed curves; the % refers to the signal ratio); conditions: HeLa HSE-bla reporter, beta-lactamase ratio, 5 h; activation: at 62.6 µM (top of the series) unless noted
In short: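 HSE-bla HeLa cells (beta-lactamase reporter under heat shock response elements), plated overnight, then exposed to compounds 5 h at 37 C; LiveBLAzer B/G FRET substrate added, 2.5 h at room temperature, fluorescence intensity read.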

[8] = qHTS assay to identify small molecule agonists of the peroxisome proliferator-activated receptor delta (PPARd) signaling pathway - cell viability counter screen (AID 743211); conditions: PPARd-bla HEK293H viability, CellTiter-Glo luminescence, 17 h; activity change, negative = cytotoxicity: at 62.6 µM (top of the series) unless noted; further: nearly all actives have a fitted effect of over 55% in size
In short: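 PPARd-bla HEK293H cells (UAS-beta-lactamase reporter) were treated with compounds for 17 h at 37 C. Viability was then read in the same wells by CellTiter-Glo luminescence after 30 min at room temperature.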

[9] = qHTS assay to identify small molecule agonists of the farnesoid-X-receptor (FXR) signaling pathway - cell viability counter screen (AID 743218); conditions: FXR-bla HEK293T viability, CellTiter-Glo luminescence, 16 h; viability change, negative = cytotoxic: at 62.6 µM (top of the series) unless noted; further: nearly all actives have a fitted effect of over 45% in size; on viability change, negative = cytotoxic: on the % scale 0 is the no-effect control and ±100 the full control effect
In short: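 In GeneBLAzer FXR-UAS-bla HEK 293T cells, compounds act for 16 h at 37 C. Cell viability is then scored in the reporter wells by CellTiter-Glo, 30 min at RT, luminescence.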

[10] = target: Vitamin D3 receptor (Homo sapiens) (UniProt P11473); assay: qHTS assay to identify small molecule antagonists of the vitamin D receptor (VDR) signaling pathway (AID 743223; active means well fitted inhibition curve with a large enough effect in the signal ratio in the repeat runs, not every such curve was filed as active; inconclusive means weak or mixed curves, or effect the other way; inactive means no such curve, though single readings can be large or run the other way; the % refers to the signal ratio; on activity change, negative = inhibition: on the % scale 0 is the no-effect control and ±100 the full control effect); conditions: VDR-UAS-bla HEK293T, beta-lactamase FRET ratio, 16 h; activity change, negative = inhibition: at 61 µM (top of the series) unless noted
In short: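 VDR-bla cells were plated, incubated 4 h at 37C, then given compound and 1alpha,25-dihydroxyvitamin D3 (3 nM final). After 16 h at 37C, LiveBLAzer B/G FRET substrate was added for 2 h at room temperature and fluorescence read.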

[11] = target: Peroxisome proliferator-activated receptor delta (Homo sapiens) (UniProt Q03181); assay: qHTS assay to identify small molecule agonists of the peroxisome proliferator-activated receptor delta (PPARd) signaling pathway (AID 743212; calls by dose curve); conditions: HEK293H PPARd-UAS-bla, beta-lactamase FRET ratio, 17 h; activation: at 62.6 µM (top of the series) unless noted
In short: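 GeneBLAzer UAS-bla HEK293H cells carrying a PPARδ construct were exposed to compounds at 37 °C. Beta-lactamase activity was read by FRET fluorescence after 2 h at room temperature with LiveBLAzer B/G substrate.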

[12] = qHTS assay to identify small molecule antagonists of the peroxisome proliferator-activated receptor delta (PPARd) signaling pathway - cell viability counter screen (AID 743213); conditions: PPARd-bla HEK293H viability, CellTiter-Glo luminescence, 17 h; viability change, negative = cytotoxic: at 62 µM (top of the series) unless noted; further: nearly all actives have a fitted effect of over 50% in size
In short: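 Agonist-stimulated (L165041, 300 nM final) HEK293H PPARd UAS-bla cells are exposed to compounds for 17 h at 37 C, and ATP-based luminescence (CellTiter-Glo) from the same wells reports cytotoxicity.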

[13] = target: Peroxisome proliferator-activated receptor delta (Homo sapiens) (UniProt Q03181); assay: qHTS assay to identify small molecule antagonists of the peroxisome proliferator-activated receptor delta (PPARd) signaling pathway (AID 743215; active means well fitted inhibition curve with a large enough effect in the signal ratio in the repeat runs, not every such curve was filed as active; inconclusive means weak or mixed curves, or effect the other way; inactive means no such curve, though single readings can be large or run the other way; the % refers to the signal ratio); conditions: HEK293H PPARd-UAS-bla, beta-lactamase FRET ratio, antagonist, 17 h; ratio activity, negative = inhibition: at 62 µM (top of the series) unless noted
In short: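 Antagonist-mode beta-lactamase reporter screen: HEK293H cells with UAS-bla under PPARd control, stimulated by 300 nM L165041 (final) alongside test compound for 17 h at 37 C, then FRET fluorescence after 2 h substrate incubation.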

[14] = target: Bile acid receptor (Homo sapiens) (UniProt Q96RI1); assay: qHTS assay to identify small molecule antagonists of the farnesoid-X-receptor (FXR) signaling pathway (AID 743217; active means well fitted inhibition curve with a large enough effect in the signal ratio in the repeat runs, not every such curve was filed as active; inconclusive means weak or mixed curves, or effect the other way; inactive means no such curve, though single readings can be large or run the other way; the % refers to the signal ratio); conditions: HEK293T FXR-UAS-bla, beta-lactamase ratio, CDCA-stimulated, 16 h; activity change, negative = inhibition: at 62.6 µM (top of the series) unless noted
In short: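 Beta-lactamase reporter under UAS control in HEK 293T cells; compound exposure 16 h at 37 °C in the presence of chenodeoxycholic acid (50 uM final); signal from B/G FRET substrate after 2 h at room temperature.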

[15] = target: Bile acid receptor (Homo sapiens) (UniProt Q96RI1); assay: qHTS assay to identify small molecule agonists of the farnesoid-X-receptor (FXR) signaling pathway (AID 743220; active means well fitted activation curve with a large enough effect in the signal ratio in the repeat runs, not every such curve was filed as active; inconclusive means weak or mixed curves, or effect the other way; the % refers to the signal ratio); conditions: HEK293T FXR-UAS-bla, beta-lactamase FRET ratio, 16 h; activation: at 62.6 µM (top of the series) unless noted
In short: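 Beta-lactamase reporter under UAS control in GeneBLAzer FXR HEK 293T cells (5000/well) measured with LiveBLAzer FRET substrate after 2 h at room temperature. Compound exposure lasted 16 h at 37C.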

[16] = qHTS assay to identify small molecule antagonists of the farnesoid-X-receptor (FXR) signaling pathway - cell viability counter screen (AID 743221; active means well fitted cell-killing curve with a large enough effect in the repeat runs, not every such curve was filed as active; inconclusive means weak or mixed curves, or effect the other way; inactive means no such curve, though single readings can be large or run the other way; further: nearly all actives have a fitted effect of over 50% in size); conditions: FXR-bla HEK293T viability, CellTiter-Glo luminescence, 16 h; activity change, negative = cytotoxicity: at 62.6 µM (top of the series) unless noted
In short: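 FXR-UAS-bla HEK 293T cells were treated with test compounds plus chenodeoxycholic acid (50 uM final) for 16 h at 37 C. Cell viability in the same wells was then read as CellTiter-Glo luminescence after 30 min at room temperature.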

[17] = target: Vitamin D3 receptor (Homo sapiens) (UniProt P11473); assay: qHTS assay to identify small molecule agonists of the vitamin D receptor (VDR) signaling pathway (AID 743222; calls by dose curve); conditions: HEK293T VDR-UAS-bla, beta-lactamase FRET ratio, 16 h; activation: at 63.5 µM (top of the series) unless noted
In short: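 Agonist activity measured in VDR-bla reporter cells. Exposure 16 h, 37C, 5% CO2; detection by B/G FRET substrate, 2 h RT.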

[18] = qHTS assay to identify small molecule agonists of the vitamin D receptor (VDR) signaling pathway - cell viability counter screen (AID 743224); conditions: VDR-bla HEK293T viability, CellTiter-Glo luminescence, 16 h; activity change, negative = cytotoxicity: at 62.6 µM (top of the series); further: nearly all actives have a fitted effect of over 50% in size
In short: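 VDR-bla cell line, quantitative HTS format; 16 h compound incubation (37C, 5% CO2); ATP-based CellTiter-Glo luminescence measured in the reporter assay wells.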
Potency means the concentration at half of the fitted maximal effect; tags describe the fitted curve by direction and shape or compound fluorescence and quenching.

Chain of UniProt P37231 (P37231 whole entry, looked up): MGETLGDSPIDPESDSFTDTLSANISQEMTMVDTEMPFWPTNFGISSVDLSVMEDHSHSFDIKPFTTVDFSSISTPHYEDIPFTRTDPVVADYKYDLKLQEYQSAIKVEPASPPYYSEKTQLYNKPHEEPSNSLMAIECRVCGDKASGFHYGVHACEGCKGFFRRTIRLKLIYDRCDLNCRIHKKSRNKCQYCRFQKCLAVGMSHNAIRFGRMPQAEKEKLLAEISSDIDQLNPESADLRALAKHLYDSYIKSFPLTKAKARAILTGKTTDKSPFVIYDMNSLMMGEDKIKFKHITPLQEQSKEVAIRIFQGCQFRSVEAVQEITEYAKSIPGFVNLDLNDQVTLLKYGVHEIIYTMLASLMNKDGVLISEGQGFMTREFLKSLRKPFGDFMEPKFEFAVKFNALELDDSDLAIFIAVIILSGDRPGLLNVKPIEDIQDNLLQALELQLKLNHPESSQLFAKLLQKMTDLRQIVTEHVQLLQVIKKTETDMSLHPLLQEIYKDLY
Chain of UniProt P11473 (P11473 whole entry, looked up): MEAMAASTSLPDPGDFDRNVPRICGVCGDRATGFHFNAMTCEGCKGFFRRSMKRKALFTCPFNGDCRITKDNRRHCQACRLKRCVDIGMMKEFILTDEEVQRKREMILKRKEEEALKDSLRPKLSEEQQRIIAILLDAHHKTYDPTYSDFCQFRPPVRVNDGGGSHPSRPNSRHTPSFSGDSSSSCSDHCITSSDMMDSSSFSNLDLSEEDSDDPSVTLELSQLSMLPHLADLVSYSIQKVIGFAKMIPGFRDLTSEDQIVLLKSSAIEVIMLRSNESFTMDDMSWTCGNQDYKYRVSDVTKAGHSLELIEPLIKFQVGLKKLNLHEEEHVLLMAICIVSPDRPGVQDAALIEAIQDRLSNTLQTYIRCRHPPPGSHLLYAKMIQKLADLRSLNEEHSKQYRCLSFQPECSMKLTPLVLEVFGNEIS
Chain of UniProt Q96RI1 (Q96RI1 whole entry, looked up): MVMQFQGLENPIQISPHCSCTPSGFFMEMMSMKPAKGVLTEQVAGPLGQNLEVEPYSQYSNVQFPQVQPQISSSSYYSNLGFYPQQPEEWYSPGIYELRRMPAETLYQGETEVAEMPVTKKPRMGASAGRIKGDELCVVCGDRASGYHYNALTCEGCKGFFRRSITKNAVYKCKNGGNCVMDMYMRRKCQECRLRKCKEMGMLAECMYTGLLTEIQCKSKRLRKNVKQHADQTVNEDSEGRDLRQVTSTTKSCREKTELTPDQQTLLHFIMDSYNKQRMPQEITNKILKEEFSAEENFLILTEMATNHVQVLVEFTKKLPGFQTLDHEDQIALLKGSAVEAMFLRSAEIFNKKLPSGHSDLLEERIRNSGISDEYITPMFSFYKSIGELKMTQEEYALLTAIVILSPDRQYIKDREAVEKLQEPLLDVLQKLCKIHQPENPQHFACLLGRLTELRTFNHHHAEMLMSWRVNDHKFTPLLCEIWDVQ
Chain of UniProt Q03181 (Q03181 whole entry, looked up): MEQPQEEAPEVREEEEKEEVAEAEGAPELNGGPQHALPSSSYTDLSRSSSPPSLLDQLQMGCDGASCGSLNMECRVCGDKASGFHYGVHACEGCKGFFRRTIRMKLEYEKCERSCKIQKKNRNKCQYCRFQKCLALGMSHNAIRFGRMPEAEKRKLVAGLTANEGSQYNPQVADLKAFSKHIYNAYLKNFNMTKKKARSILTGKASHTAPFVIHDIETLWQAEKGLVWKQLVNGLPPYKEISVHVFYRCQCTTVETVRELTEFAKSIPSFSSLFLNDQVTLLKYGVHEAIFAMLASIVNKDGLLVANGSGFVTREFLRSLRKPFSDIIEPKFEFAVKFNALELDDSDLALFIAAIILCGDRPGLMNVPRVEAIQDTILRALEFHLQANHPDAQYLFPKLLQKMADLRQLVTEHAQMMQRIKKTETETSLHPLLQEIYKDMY
Chain of UniProt P35869 (P35869 whole entry, looked up): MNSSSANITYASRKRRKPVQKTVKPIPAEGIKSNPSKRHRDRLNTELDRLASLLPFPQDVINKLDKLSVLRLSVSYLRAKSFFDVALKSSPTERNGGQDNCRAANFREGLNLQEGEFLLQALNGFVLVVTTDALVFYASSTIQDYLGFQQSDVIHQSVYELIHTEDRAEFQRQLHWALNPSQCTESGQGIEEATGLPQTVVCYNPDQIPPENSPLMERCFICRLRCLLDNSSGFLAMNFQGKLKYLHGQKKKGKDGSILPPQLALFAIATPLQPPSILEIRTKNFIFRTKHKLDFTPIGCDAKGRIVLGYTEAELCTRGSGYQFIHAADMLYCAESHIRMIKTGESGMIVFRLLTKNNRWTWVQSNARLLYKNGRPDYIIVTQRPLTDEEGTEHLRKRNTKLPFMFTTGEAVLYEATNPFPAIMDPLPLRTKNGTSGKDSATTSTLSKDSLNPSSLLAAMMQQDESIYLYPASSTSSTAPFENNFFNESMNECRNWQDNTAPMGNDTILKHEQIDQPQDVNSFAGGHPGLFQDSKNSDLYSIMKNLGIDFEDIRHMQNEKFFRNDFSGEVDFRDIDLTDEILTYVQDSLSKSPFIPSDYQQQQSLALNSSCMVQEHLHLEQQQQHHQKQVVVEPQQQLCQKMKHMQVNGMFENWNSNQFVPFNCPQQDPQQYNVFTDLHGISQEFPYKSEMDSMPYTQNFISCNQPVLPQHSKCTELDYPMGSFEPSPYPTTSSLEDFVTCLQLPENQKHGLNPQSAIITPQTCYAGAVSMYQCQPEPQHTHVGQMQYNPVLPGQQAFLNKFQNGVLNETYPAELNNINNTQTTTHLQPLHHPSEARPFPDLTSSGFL

N=C1N=C(N)c2ccccc21
inactive: Potency [5] | Potency [9] | Potency [10]
inconclusive: Potency [1] 24.3 µM [activator, partial curve, poor fit] | Potency [2] 17.2 µM [falling, full curve] | activation [3] -13.5% | Potency [4] 54.9 µM | Potency [7] 34.7 µM [falling, partial curve] | Potency [8] 19.5 µM [cytotoxic, partial curve, poor fit]
active: Potency [6] 19.3 µM

Oc1cccc(-c2c3nc(c(-c4cccc(O)c4)c4ccc([nH]4)c(-c4cccc(O)c4)c4nc(c(-c5cccc(O)c5)c5ccc2[nH]5)CC4)C=C3)c1
active: Potency [2] 26.6 µM and 29.8 µM | Potency [5] 29.8 µM | Potency [9] 21.1 µM | Potency [18] 26.6 µM
inconclusive: Potency [1] 29.8 µM [activator, single point] | Potency [3] 26.8 µM [cytotoxic] | Potency [4] 7.5 µM [cytotoxic, partial curve, poor fit] | Potency [6] 10.6 µM | Potency [7] 16.2 µM | Potency [11] 29.8 µM | Potency [12] 29.8 µM [cytotoxic, single point] | Potency [13] 33.5 µM [inhibitor] | Potency [14] 4.73 µM [cytotoxic, partial curve, poor fit] | Potency [15] 13.3 µM [cytotoxic, partial curve] | Potency [16] 33.5 µM [falling, single point] | Potency [17] 15 µM [inhibitor, partial curve, poor fit] | Potency [10] 26.8 µM [inhibitor]
